In all, about 110,000 compounds were measured (“z-score”: median about -0.1, highest 2% from about 2 on). Some of the results follow. Active and inactive are the calls of the source.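 How the source made its calls: active means z-score in the third read window above 3 or below -3; inactive means the rest.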
The compounds below were run against Metabotropic glutamate receptor 8 (Rattus norvegicus) (UniProt P70579) (assay: rat mGluR8 modulators via GIRK flux, primary screen, cell-based, thallium flux, HTS (AID 488969)). Conditions: HEK293 rat mGluR8, GIRK (G protein-gated inwardly rectifying potassium channel) thallium flux, FluoZin2; at 10 µM; stronger effect = higher value; submaximal glutamate (EC20) added with thallium.
Sequence of UniProt P70579 (P70579 whole entry, looked up): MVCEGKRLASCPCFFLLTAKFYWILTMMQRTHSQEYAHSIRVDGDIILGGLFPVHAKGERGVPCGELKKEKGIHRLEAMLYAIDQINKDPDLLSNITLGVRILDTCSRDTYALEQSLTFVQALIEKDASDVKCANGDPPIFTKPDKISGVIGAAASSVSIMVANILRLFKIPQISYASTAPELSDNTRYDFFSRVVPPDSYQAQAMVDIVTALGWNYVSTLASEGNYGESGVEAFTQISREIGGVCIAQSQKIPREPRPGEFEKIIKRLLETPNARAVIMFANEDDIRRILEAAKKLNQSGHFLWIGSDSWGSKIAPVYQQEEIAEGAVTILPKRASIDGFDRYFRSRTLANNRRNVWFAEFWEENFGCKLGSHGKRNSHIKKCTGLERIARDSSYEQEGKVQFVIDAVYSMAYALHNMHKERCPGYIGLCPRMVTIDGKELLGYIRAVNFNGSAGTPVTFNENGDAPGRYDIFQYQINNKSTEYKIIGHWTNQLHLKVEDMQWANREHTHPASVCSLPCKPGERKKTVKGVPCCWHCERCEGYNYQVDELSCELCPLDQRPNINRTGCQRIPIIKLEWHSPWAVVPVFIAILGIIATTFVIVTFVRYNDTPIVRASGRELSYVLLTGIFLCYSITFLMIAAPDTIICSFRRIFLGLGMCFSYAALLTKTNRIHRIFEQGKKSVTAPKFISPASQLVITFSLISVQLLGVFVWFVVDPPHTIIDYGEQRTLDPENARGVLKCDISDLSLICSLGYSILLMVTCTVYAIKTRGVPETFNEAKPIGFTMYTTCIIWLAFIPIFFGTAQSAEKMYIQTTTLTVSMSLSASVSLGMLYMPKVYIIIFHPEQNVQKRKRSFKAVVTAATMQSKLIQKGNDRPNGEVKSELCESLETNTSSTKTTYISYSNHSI

| Structure (SMILES) | z-score |
| --- | --- |
| CN=C1c2cc3cc(OC)ccc3n2CCN1C | 0.371 |
| CCC(C(=O)NC(C)(C)C)N(C(=O)Cn1nnc(-c2cccs2)n1)c1cnc2ccccc2c1 (centres undefined) | -0.449 |
| CC(=O)N1CCN(c2ccccc2NC(=O)COc2ccc(Cl)cc2Cl)CC1 | -0.0464 |
| COc1ccccc1C1CC(c2ccc(Cl)cc2Cl)Nc2nc(N)nn21 (centres undefined) | 1.11 |
| CCCCCCNc1nc(NCc2ccco2)nc(OCC)n1 | -1.43 |
| COc1ccccc1C1N(c2ccc(F)cc2)C(=O)C2CCCN21 (centres undefined) | 0.0807 |
| O=C(NCCCN1CCCC1=O)NC1CCCCC1 | 0.057 |
| CCCCn1cnc2c([nH]c3ccccc32)c1=O | 0.099 |
| Cc1cc(NC(=O)C2CCCN(S(=O)(=O)c3cnc[nH]3)C2)ccc1Br (centres undefined) | 0.143 |
| C=CCOc1ccc(CNn2cn[nH]c2=S)cc1OC | 1.29 |
| CCc1sc(NC(=O)CN2CCOCC2)nc1-c1ccccc1 | active: -4.07 |
| O=C(CSc1nc2ccccc2c(=O)n1NC(=O)Cc1ccccc1)NCCc1ccccc1 | -0.104 |
| C/C(=N\Nc1ccc([N+](=O)[O-])cc1)c1ccco1 | -0.373 |
| COc1cc(NC(=O)c2cc(C3CC3)on2)c(OC)cc1Cl | 1.04 |
| COCC(=O)N(Cc1ccc(OC)cc1)Cc1nc2ccccc2c(=O)[nH]1 | -0.418 |
| CCN(CC)CCOc1cc2c(nn1)Oc1ccccc1N2C | -0.269 |
| COc1cc(NC(=O)CN2C(=O)c3ccccc3C2=O)c(C(=O)O)cc1OC | -1.17 |
| Cc1ccc(C)c(N2CCN(Cc3nnnn3C3CCCCC3)CC2)c1 | 0.591 |
| C=CCn1c(SCc2ccccc2C#N)nnc1-c1cc(Br)ccc1O | -0.764 |
| Cc1ccc(-n2c(=S)[nH]c3sc4c(c3c2=O)CCc2ccccc2-4)cc1 | 2.33 |
| O=C(NCCOC(=O)C1COc2ccccc2O1)C1COc2ccccc2O1 (centres undefined) | -0.735 |
| CCOC(=O)N1CCN(S(=O)(=O)c2ccc(OCC(=O)OC)cc2)CC1 | 0.0316 |

| Structure (SMILES) | z-score |
| --- | --- |
| O=C(Nc1ccccc1)N1CCC(c2nc(-c3ccc(S(=O)(=O)N4CCOCC4)cc3)no2)CC1 | -0.088 |
| O=C(CSc1nnc(Nc2ccccc2)s1)Nc1cccc(S(=O)(=O)N2CCCCC2)c1 | -0.673 |
| CC(NC(=S)Nc1ccc(S(=O)(=O)N2CCOCC2)cc1)C1CC2CCC1C2 (centres undefined) | 0.358 |
| CN(CC(=O)O)S(=O)(=O)c1cc(Cl)ccc1Cl | -0.122 |
| CCCCC1C2=C(CCCC2=O)OC2=C1C(=O)CCC2 | -0.617 |
| CCn1cc(Br)c(C(=O)Nc2cccc(SC)c2)n1 | -0.175 |
| COCc1cc(=O)n2[nH]c(SCc3ccccc3)nc2n1 | -0.0885 |
| CC(C)OC(=O)/C(=C\C=C\c1ccccc1)NC(=O)c1ccccc1 | -0.143 |
| COc1cc(C=O)ccc1OS(=O)(=O)c1ccccc1[N+](=O)[O-] | -0.429 |
| CCOc1ccc(CCNC(=O)C2CCN(c3nnc(-n4cccc4)s3)CC2)cc1 | -0.269 |
| COc1cc(NC(=O)C2CCCCC2)c2ncccc2c1 | -0.248 |
| Brc1ccc(Cn2c(-c3cncs3)nc3ccccc32)cc1 | 0.106 |
| Cc1cc(/C=C(\C#N)C(=O)Nc2ccccc2)c(C)n1-c1cccnc1 | 0.741 |
| CCOc1ccc(C(OC(=O)c2ccco2)C(=O)NCc2ccc(C)cc2)cc1 (centres undefined) | -0.858 |
| [O-]C1=N/[N+](=C/c2ccc(Cl)cc2)CC1 | 0.265 |
| Cc1ccc(S(=O)(=O)Nc2nc(C)c(NC(=O)OCCCl)s2)cc1 | -0.0861 |
| CSc1nsc(SCC(=O)N2CCc3ccccc32)n1 | -0.159 |
| COc1ccc2[nH]c(=S)[nH]c2c1 | -1.55 |
| O=C(NCc1ccccn1)c1c(O)c2c([nH]c1=O)CCCC2 | -0.171 |
| Cc1cccc(C(=O)CC(=O)c2cc(Cl)ccc2O)c1 | active: 4.14 |
| CCOC(=O)c1oc2nc(C(C)C)c3c(c2c1N)CC(C)(C)OC3 | -1.89 |
| CCOC(=O)NNC1CC(=O)N(c2ccc(OC)cc2)C1=O (centres undefined) | -0.0998 |

| Structure (SMILES) | z-score |
| --- | --- |
| CCn1c(C(C)NC(=O)c2cccs2)n[nH]c1=S (centres undefined) | 0.205 |
| CCn1c(=O)cc(OCC(=O)Nc2cccc(C)n2)c2ccccc21 | 1.59 |
| Cc1ccccc1CN(CC(=O)Nc1cccc([N+](=O)[O-])c1)S(=O)(=O)c1ccc(Cl)cc1 | 0.0331 |
| Cn1c(=O)cc(SCC(=O)NCCCN2CCOCC2)c2ccc(Cl)cc21 | -0.0547 |
| CCOC(=O)Nc1ccc2c(CN3C(=O)NC(CC)(CC)C3=O)cc(=O)oc2c1 | -0.179 |
| O=c1[nH]c2ccc(S(=O)(=O)N3CCN(c4ccccc4)CC3)cc2[nH]c1=O | -0.184 |
| COc1ccc(NC2(c3ccc(Cl)cc3)C(=O)c3ccccc3C2=O)cc1 | -0.308 |
| Nc1nc(-c2cccnc2)nn1C(=O)Cc1ccccc1 | 0.104 |
| COc1ccc(OC(C)C(=O)N2CC(C)OC(C)C2)cc1 (centres undefined) | -0.0569 |
| O=C(Oc1ccc2c(c1)OCO2)C12CC3CC(CC(C3)C1)C2 | -0.302 |
| CSc1nc2nccc(-c3ccc(Oc4ccccc4)cc3)n2n1 | -1.45 |
| Cc1cc(NS(=O)(=O)c2ccc(NC(=O)C(C)Oc3ccc(Cl)cc3)cc2)no1 (centres undefined) | -0.415 |
| CC1CC1C(=O)OCC(=O)Nc1ccc(N=Nc2ccccc2)cc1 (centres undefined) | 0.616 |
| COC(=O)c1sc2ccc(C)cc2c1C(=O)OC | -1.28 |
| C#CCn1c(=NC(=O)c2cc(-c3cccs3)nc3ccccc23)sc2cc(S(N)(=O)=O)ccc21 | -0.48 |
| CCN(CC)C(=O)CSc1nnc(-c2cc(OC)cc(OC)c2)o1 | -0.831 |
| Cn1c(C(C#N)C2=C(Cl)C(=O)N(c3ccccc3)C2=O)nc2ccccc21 (centres undefined) | -1.07 |
| Cc1ccc(C(=O)CSc2nnc(-c3ccccc3)o2)cc1 | 0.068 |
| CN1CCN(CCCNC(=O)Nc2cccc3ccccc23)CC1 | -0.83 |
| Cn1c(=O)c2c(nc(N/N=C/c3ccc(OC(=O)c4ccco4)cc3)n2Cc2ccc(F)cc2)n(C)c1=O | 0.155 |
| O=C(Nc1cccs1)Nc1c(F)c(F)cc(F)c1F | 0.433 |
| Cc1cc(NC(=O)C(C)C)ncc1NC(=O)Cc1ccccc1 | 1.07 |

| Structure (SMILES) | z-score |
| --- | --- |
| Cc1ccc(-n2c(SCC(=O)Nc3ncc(Cl)cc3Cl)nc3ccccc32)cc1 | 0.924 |
| O=C(CSCC(=O)N1CCOCC1)Nc1nc(-c2ccc3c(c2)OCO3)cs1 | 2 |
| O=C1Nc2ccc([N+](=O)[O-])cc2C1(O)N1CCCCC1 (centres undefined) | -0.153 |
| Cc1ccc(/C=C2\SC(=S)N(c3c(C)n(C)n(-c4ccccc4)c3=O)C2=O)cc1 | -0.188 |
| O=C(CS(=O)CC(=O)N(c1ccccc1)C(C(=O)NC1CCCC1)c1cccs1)Nc1ccc(F)cc1 (centres undefined) | -0.139 |
| CCn1nc(C(=O)Nc2ccc(C)c(C)c2)c(Cl)c1Cl | -0.2 |
| CCN(CC)CCCN=Cc1c(O)n(Cc2ccccc2)c(=O)c2ccccc12 | 1.96 |
| O=c1c2ccccc2c(C=NCc2ccccn2)c(O)n1-c1ccccc1 | active: 9.73 |
| O=C(c1cc2sccc2n1Cc1ccc(F)cc1)N1CCN(c2nc3ccccc3s2)CC1 | 0.851 |
| Cn1nnnc1SCC(=O)Nc1ccc(Oc2ccccc2)cc1 | 0.389 |
| CCN1CCN(c2c(Cl)cccc2NC(=O)c2ccc(Br)o2)CC1 | 0.378 |
| C=CCn1c(SCc2ccc(F)cc2)nc2c1c(=O)[nH]c(=O)n2C | 0.000124 |
| O=C(NC1(C(F)(F)F)NC(=O)N(Cc2ccccc2)C1=O)c1cccnc1 (centres undefined) | -0.773 |
| Cn1c(CO)cnc1S(=O)(=O)Cc1ccc([N+](=O)[O-])cc1 | -0.151 |
| CCOC(=O)c1sc(NC(=O)C(CC)Sc2nc3ccccc3[nH]2)nc1C (centres undefined) | -0.155 |
| CCS(=O)(=O)NCC(c1cccnc1)N1CCN(c2ccccc2)CC1 (centres undefined) | 1.7 |
| O=C(Nc1ccccc1F)C1CCN(C(=O)Cc2ccccc2)CC1 | -0.0173 |
| CC/C(C)=N/Nc1ccc(S(=O)(=O)N2CCCC2)cc1[N+](=O)[O-] | -0.434 |
| Cc1ccc(N2C(=N)/C(=C3/Nc4ccccc4S3)C(c3ccccc3)C2=O)cc1 (centres undefined) | -0.472 |
| CN(C)C(/C=C/Nc1ccc(F)cc1F)=C(C#N)C#N | 0.0645 |
| O=C(C1CCCO1)N1CCN(C(=S)Nc2ccccc2)CC1 (centres undefined) | -0.0569 |
| Cc1nn(C(=O)CNS(=O)(=O)c2ccccc2)c(C)c1Sc1ccc(Cl)cc1 | -0.299 |

| Structure (SMILES) | z-score |
| --- | --- |
| CC(C)(C)OC(=O)N/N=C/c1ccc(N2CCOCC2)s1 | -0.551 |
| COc1cc(CC(=O)Nc2ccc3c(c2)CCC3)cc(OC)c1OC | -0.196 |
| Cc1ccc(C)c(SCC(=O)Nc2nnc(-c3ccccc3)o2)c1 | 1.49 |
| CCC(C)NC(=O)CS(=O)Cc1nc(-c2ccccc2C)oc1C (centres undefined) | -0.0162 |
| COc1cc(C(=O)Oc2ccc3c(c2)OCC3=O)cc(OC)c1OC | -0.369 |
| Cc1cc(C)nc(SCC(=O)N/N=C/c2cccn2-c2ccc(O)cc2)n1 | -0.417 |
| Clc1ccc(-c2cn3cc(Br)ccc3n2)cc1Cl | -0.148 |
| CCOc1ccc(N(CC(=O)N2CCCC2)S(=O)(=O)c2c(C)noc2C)cc1 | 0.0369 |
| COc1cc(C)c(Cl)cc1S(=O)(=O)n1cnc(C)c1 | 0.326 |
| O=C(CSCc1ccccc1)NC1CCSC1=O (centres undefined) | 0.14 |
| CC1CCN(S(=O)(=O)c2ccc(NC(=O)CN3CCOCC3)cc2)CC1 | 0.18 |
| Cc1ccc(-n2nnc3c(SCC(=O)N4CCN(c5ccccc5)CC4)ncnc32)cc1 | 1.22 |
| O=C(CSc1nnc(C2CC2)n1-c1ccccc1)NCc1ccco1 | -0.619 |
| CC(=O)c1sc(NC(=O)c2cc3c(C)nn(-c4ccccc4)c3s2)nc1C | -0.0973 |
| O=C(CN(CC1CCCO1)C(=O)CNS(=O)(=O)c1ccc(Cl)cc1)NCCc1ccccc1 (centres undefined) | -0.11 |
| Cc1ccc(C)c(NC(=O)CC(NCCCN2CCOCC2)C(=O)O)c1 (centres undefined) | 0.145 |
| CCOc1cc(C2c3c(n[nH]c3C)C(=O)N2c2ccc(Br)cc2)ccc1O (centres undefined) | -0.976 |
| CCc1ccc(C2NC(=S)NC3=C2C(=O)CC(C)(C)C3)cc1 (centres undefined) | -0.048 |
| COc1ccc(C2N(c3cc(Cl)ccc3OC)C(=O)C3CCCN32)cc1OC (centres undefined) | -0.492 |
| Cc1cccc(OCC(=O)Nc2cccc(-c3nnc(-c4ccccc4)o3)c2)c1C | -0.0288 |
| O=C(C1CCCO1)N1N=C(c2ccc(Br)cc2)CC1c1ccco1 (centres undefined) | -0.195 |

— PubChem BioAssay AID488969 (Vanderbilt High Throughput Screening Facility, 2010)
